# Laboratory results: the supplement of paper PMC6135742
# Counter-ions that a name gives are not always drawn. ± gives the standard deviation of the averaged measurements. Over roughly 2,600 compounds, “MBP+ mature oligodendrocyte number relative to DMSO vehicle control” has its median near -0.34; the highest 2% begin near 13. This is one part of the list.
# Test system: jimpy (Plp1 jimpy) mouse iPSC-derived oligodendrocyte progenitor cells
# Assay: MBP+ mature oligodendrocyte number relative to DMSO vehicle control (SDs above negative control mean); higher = more surviving jimpy oligodendrocytes (rescue)
# Settings: 10 µM; 3 days
# Description: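 Primary phenotypic screen of >3,000 bioactive compounds (Selleck L1700 and Sigma LO1280 libraries) at a single dose of 10 µM. Compounds were added to jimpy (Plp1 mutant) mouse iPSC-derived OPCs at the start of thyroid hormone-induced oligodendrocyte differentiation, one well per compound in 384-well plates. After 3 days cells were stained for MBP, Sox10 and DAPI and imaged with an Operetta system. MBP+ oligodendrocyte number and total cell number were expressed as the number of SDs above the mean of the DMSO negative control on the same plate (n=16 control wells per plate). Hits were defined as >=4 SD for oligodendrocytes and >=2 SD for total cells.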
row,Compound,MBP+ mature oligodendrocyte number
1,CN(C)[C@@H]1C(O)=C(C(N)=O)C(=O)[C@@]2(O)C(O)=C3C(=O)c4c(O)ccc(Cl)c4[C@@H](O)[C@H]3C[C@@H]12 [Demeclocycline hydrochloride],-0.701
2,O=C(O)CC1CC(c2ccccc2)=NO1 (stereo unspecified),3.45
3,Cn1c([N+](=O)[O-])cnc1COC(N)=O [Ronidazole],3.87
4,CCN(c1cc(-c2ccc(CN3CCOCC3)cc2)cc(C(=O)NCc2c(C)cc(C)[nH]c2=O)c1C)C1CCOCC1,8.01
5,N[C@@H](C(=O)N[C@@H]1C(=O)N2C(C(=O)O)=C(Cl)CS[C@H]12)c1ccccc1 [Cefaclor],0.0385
6,CC(C)NC[C@H](O)c1ccc(O)c(O)c1 [R(-)-Isoproterenol (+)-bitartrate],-1.28
7,COC[C@H](NC(=O)c1cnc(C)s1)C(=O)N[C@@H](COC)C(=O)N[C@@H](Cc1ccccc1)C(=O)[C@@]1(C)CO1 [Oprozomib (ONX 0912)],-5.76
8,NCCS(=O)O [Hypotaurine],0.973
9,C[C@H](Oc1cc(-c2cnn(C3CCNCC3)c2)cnc1N)c1c(Cl)ccc(F)c1Cl [(S)-crizotinib],-4.58
10,CN(C)CCOC(=O)COc1ccc(Cl)cc1 [Centrophenoxine hydrochloride],-1.77
11,Brc1c(NC2=NCCN2)ccc2nccnc12 [Brimonidine Tartrate],4.04
12,Brc1c(NC2=NCCN2)ccc2nccnc12,-0.0327
13,Cc1ccc2c(Cl)cc(Cl)c(O)c2n1 [Chlorquinaldol],< -6.35
14,N=C(N)N/N=C/c1c(Cl)cccc1Cl [Guanabenz acetate],2.02
15,N=C(N)N/N=C/c1c(Cl)cccc1Cl [Guanabenz Acetate],8.68
16,OC(CCN1CCCCC1)(c1ccccc1)C1CCCCC1 (stereo unspecified) [Trihexyphenidyl hydrochloride],-0.104
17,CN(CCOc1ccc(CC2SC(=O)NC2=O)cc1)c1ccccn1 (stereo unspecified) [Rosiglitazone],-0.108
18,Fc1cc(-c2cccc3ncc(-c4cnn(C5CCNCC5)c4)nc23)cc(F)c1CN1CCOCC1,< -6.01
19,CCOC(=O)c1c(C)n(C)c2ccc(O)cc12 [Mecarbinate],-0.647
20,COc1ccc(C[C@@H]2c3cc(OC)c(OC)cc3CC[N@+]2(C)CCC(=O)OCCCCCOC(=O)CC[N@@+]2(C)CCc3cc(OC)c(OC)cc3[C@H]2Cc2ccc(OC)c(OC)c2)cc1OC [Cisatracurium Besylate],-0.0525
21,CC(N)C12CC3CC(CC(C3)C1)C2 (stereo unspecified) [Rimantadine],-0.647
22,O=C(NS(=O)(=O)c1ccc(Br)s1)c1ccc(Cl)cc1Cl [Tasisulam],-0.523
23,OCCOCCN1CCN(C(c2ccccc2)c2ccc(Cl)cc2)CC1 (stereo unspecified) [Hydroxyzine 2HCl],10.7
24,COc1ccc(CNC(=O)Nc2ncc([N+](=O)[O-])s2)cc1,3.03
25,Cc1cc(-n2c(=O)[nH]c(=O)n(C)c2=O)ccc1Oc1ccc(SC(F)(F)F)cc1 [Toltrazuril],0.66
26,"CCCn1c(=O)c2[nH]c(-c3ccc(S(=O)(=O)O)cc3)nc2n(CCC)c1=O [1,3-Dipropyl-8-p-sulfophenylxanthine]",0.353

row,Compound,MBP+ mature oligodendrocyte number
1,Cc1ccccc1N1C(=O)c2cc(S(N)(=O)=O)c(Cl)cc2NC1C (stereo unspecified) [Metolazone],-0.109 ± 1.7
2,CN(C)CCC(c1ccc(Br)cc1)c1ccccn1 (racemic) [(±)-Brompheniramine maleate],-0.629
3,O=C1N(c2ccccc2)c2ccccc2C1(Cc1ccncc1)Cc1ccncc1 [Linopirdine],-1.07
4,[I-].[K+] [Potassium Iodide],-0.197
5,CCS(=O)(=O)Nc1ccc2c(c1)/C(=C(/Nc1ccc(CN3CCCCC3)cc1)c1ccccc1)C(=O)N2 [Hesperadin],< -5.15
6,O=C(Nc1ccc(-c2ccnc(Nc3ccc(N4CCOCC4)cc3)n2)cc1)C1CCCN1 (stereo unspecified),-6.27
7,COc1ccc2[nH]c([S+]([O-])Cc3ncc(C)c(OC)c3C)nc2c1 (stereo unspecified) [Omeprazole],6.39
8,NC(=S)N/N=C/c1ncccc1N [Triapine],-4.64
9,Nc1cccc2c1CN(C1CCC(=O)NC1=O)C2=O (stereo unspecified) [Lenalidomide (CC-5013)],1.16
10,CCOC(=O)[C@H](CCc1ccccc1)N[C@@H](C)C(=O)N1CCC[C@H]1C(=O)O [Enalapril Maleate],1.51
11,NC[C@@H]1O[C@H](c2ccccc2)Cc2c1ccc(O)c2O,-0.675
12,CNC(=O)[C@H](Cc1ccccc1)NC(=O)[C@H](CC(C)C)[C@H](CSc1cccs1)C(=O)NO [Batimastat (BB-94)],-5.76
13,NOCC(=O)O [O-(Carboxymethyl)hydroxylamine hemihydrochloride],1.92
14,C=CC(=O)N1CCC[C@@H](n2nc(-c3ccc(Oc4ccccc4)cc3)c3c(N)ncnc32)C1,0.104
15,CC(=O)N1CCN(CCOc2ccc(C3CCN(C4=Nn5c(nnc5C(F)(F)F)CC4)CC3)cc2)CC1,0.66
16,C=CC(=O)Nc1ccc2ncnc(Nc3ccc(OCc4cccc(F)c4)c(Cl)c3)c2c1,-4.75
17,CC1=C(CC(=O)O)c2cc(F)ccc2/C1=C\c1ccc([S+](C)[O-])cc1 (stereo unspecified) [Sulindac],-0.886 ± 0.045
18,C[C@]12CC[C@@H]3c4ccc(O)cc4CC[C@H]3[C@@H]1C[C@@H](O)[C@@H]2O [Estriol],-0.78
19,Cc1nc(N)sc1-c1ccnc(Nc2ccc(N3CCOCC3)cc2)n1,< -6.7
20,CCC[C@H](NC(=O)[C@@H]1[C@H]2CCC[C@H]2CN1C(=O)[C@@H](NC(=O)[C@@H](NC(=O)c1cnccn1)C1CCCCC1)C(C)(C)C)C(=O)C(=O)NC1CC1 [Telaprevir (VX-950)],-2.36
21,Cc1noc(NS(=O)(=O)c2ccc(N)cc2)c1C [Sulfisoxazole],-0.377
22,O=CN(O)CCCP(=O)(O)O [Fosmidomycin sodium salt hydrate],-0.676
23,CCc1cccc2c3c([nH]c12)C(CC)(CC(=O)O)OCC3 (stereo unspecified) [Etodolac],2.18 ± 3.5
24,C[C@@H]1CN(CC(=O)Nc2ccc3c(c2)Cc2cccc(-c4cc(=O)cc(N5CCOCC5)o4)c2S3)C[C@H](C)O1,-4.97
25,COc1cc(Nc2ncc(F)c(Nc3ccc4c(n3)N(COP(=O)(O)O)C(=O)C(C)(C)O4)n2)cc(OC)c1OC [Fostamatinib (R788)],< -6.01
